# In the supplement of paper PMC8728848:
# The other results are listed elsewhere or left out.
# B1: PX9937A-bvu-521-23-521 (Bacteroides vulgatus) (protein)
# chain: LDLAPEDYYGAGNFWKEASQPKAFMLGLHAQLRSYYDMFYTLGELRGGTQRVGTSSLNTSLNYADIRSQNISEDIPGISNWNGLYSPIMQVNHFIQEVENGCTFLDDATRSRYLGQAYGMRALYYFMLYRTFGGVPLITKVDILDGKPSADKFYVERATPEATMEFIKADINKSENYFGNNTSFDAYDWSRYATLMLKAEIYMWAAKVSITGFTATGATDLQTAKTALSGIIGHFELMDNFASIFSCDNKKNTEIIFAMPFIEGEASNDGGRFLYQDAVFLGQAYGRNGKVIEKDTLNLKGTGGVFRDEYTEDFWKTFKEGDSRRDATFMEYYMKNDNGTLSEFGCVMKKRIGTINSNDNRIYISDIPVYRYADALLMMAEIENGLNNPCASYINEVRKRAYGDTFEENKYTEGSYAENELAILQERDKEFVSEGKRWFDVLRMHDASGRSLVFSANANYPGTNPILGTEEAYKMLWPVNIGTLNVNPLLTQTPGYGKK
# Legend:
# Test in all cases: glycan array binding signal (z-score within array); higher = stronger binding
# Details in all cases: glycan notation: IUPAC condensed, linker removed
# [1] = target: Glc(b1-6)Glc
# Method in brief: (§1)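 Glycan array data were curated from 3228 arrays in the Consortium for Functional Glycomics database and kept only where the protein sequence was available. Glycan names were converted to IUPAC-condensed notation, and columns mapping to the same glycan were averaged. The binding signal is a within-array Z-score, averaged across arrays of the same protein sequence at different concentrations or buffers and across linkers. Negative Z-scores can be read as non-binding.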
# [2] = target: GlcA(b1-3)Gal
# Method in brief: as §1
# [3] = target: GlcA(b1-3)GlcNAc
# Method in brief: as §1
# [4] = target: GlcA(b1-6)Gal
# Method in brief: as §1
# [5] = target: GlcA3S(b1-3)Gal(b1-4)GlcNAc(b1-2)Man
# Method in brief: as §1
# [6] = target: GlcA3S(b1-3)Gal(b1-4)GlcNAc(b1-3)Gal(b1-4)Glc
# Method in brief: as §1
# [7] = target: GlcNAc(a1-3)Gal(b1-4)GlcNAc
# Method in brief: as §1
# [8] = target: GlcNAc(a1-4)Gal(b1-3)GlcNAc
# Method in brief: as §1
# [9] = target: GlcNAc(a1-4)Gal(b1-4)GalNAc
# Method in brief: as §1
# [10] = target: GlcNAc(a1-4)Gal(b1-4)GlcNAc
# Method in brief: as §1
# [11] = target: GlcNAc(a1-4)Gal(b1-4)GlcNAc(b1-3)Gal(b1-4)Glc
# Method in brief: as §1
# [12] = target: GlcNAc(a1-4)Gal(b1-4)GlcNAc(b1-3)Gal(b1-4)GlcNAc
# Method in brief: as §1
# [13] = target: GlcNAc(a1-4)Gal(b1-4)GlcNAc(b1-3)Gal(b1-4)GlcNAc(b1-3)Gal(b1-4)GlcNAc
# Method in brief: as §1
# [14] = target: GlcNAc(a1-4)Gal(b1-4)GlcNAc(b1-3)Gal(b1-4)[Fuc(a1-3)]GlcNAc(b1-3)Gal(b1-4)[Fuc(a1-3)]GlcNAc
# Method in brief: as §1
# [15] = target: GlcNAc(a1-6)Gal(b1-4)GlcNAc
# Method in brief: as §1
# [16] = target: GlcNAc(b1-2)Gal(b1-3)GalNAc
# Method in brief: as §1
# [17] = target: GlcNAc(b1-2)Man(a1-3)[GlcNAc(b1-2)Man(a1-6)]Man(b1-4)GlcNAc(b1-4)GlcNAc
# Method in brief: as §1
# [18] = target: GlcNAc(b1-2)Man(a1-3)[GlcNAc(b1-2)Man(a1-6)]Man(b1-4)GlcNAc(b1-4)[Fuc(a1-6)]GlcNAc
# Method in brief: as §1
# [19] = target: GlcNAc(b1-2)Man(a1-3)[GlcNAc(b1-4)][GlcNAc(b1-2)Man(a1-6)]Man(b1-4)GlcNAc(b1-4)GlcNAc
# Method in brief: as §1
# [20] = target: GlcNAc(b1-2)Man(a1-3)[GlcNAc(b1-4)][GlcNAc(b1-2)Man(a1-6)]Man(b1-4)GlcNAc(b1-4)[Fuc(a1-6)]GlcNAc
# Method in brief: as §1
# [21] = target: GlcNAc(b1-2)[GlcNAc(b1-4)]Man(a1-3)[GlcNAc(b1-2)Man(a1-6)]Man(b1-4)GlcNAc(b1-4)GlcNAc
# Method in brief: as §1
# [22] = target: GlcNAc(b1-2)[GlcNAc(b1-4)]Man(a1-3)[GlcNAc(b1-4)][GlcNAc(b1-2)Man(a1-6)]Man(b1-4)GlcNAc(b1-4)GlcNAc
# Method in brief: as §1
binder,measurement,setting,value
B1,glycan array binding signal (z-score),[1],-0.325
same,glycan array binding signal (z-score),[2],-0.456
same,glycan array binding signal (z-score),[3],-0.262
same,glycan array binding signal (z-score),[4],-0.424
same,glycan array binding signal (z-score),[5],-0.562
same,glycan array binding signal (z-score),[6],-0.349
same,glycan array binding signal (z-score),[7],0.048
same,glycan array binding signal (z-score),[8],-0.348
same,glycan array binding signal (z-score),[9],-0.293
same,glycan array binding signal (z-score),[10],-0.323
same,glycan array binding signal (z-score),[11],-0.232
same,glycan array binding signal (z-score),[12],-0.421
same,glycan array binding signal (z-score),[13],-0.31
same,glycan array binding signal (z-score),[14],0.379
same,glycan array binding signal (z-score),[15],-0.372
same,glycan array binding signal (z-score),[16],-0.347
same,glycan array binding signal (z-score),[17],-0.423
same,glycan array binding signal (z-score),[18],-0.224
same,glycan array binding signal (z-score),[19],-0.097
same,glycan array binding signal (z-score),[20],-0.211
same,glycan array binding signal (z-score),[21],-0.709
same,glycan array binding signal (z-score),[22],-0.344
